Source: paper PMC10726135
The other results are listed elsewhere or left out. At the low end of the ranking the order means little. Measured with an extract: partners may take part in the binding.

Target: T1, HNF4alpha8 (COS-7 nuclear extract) (UniProt P41235-5)
T1 sequence: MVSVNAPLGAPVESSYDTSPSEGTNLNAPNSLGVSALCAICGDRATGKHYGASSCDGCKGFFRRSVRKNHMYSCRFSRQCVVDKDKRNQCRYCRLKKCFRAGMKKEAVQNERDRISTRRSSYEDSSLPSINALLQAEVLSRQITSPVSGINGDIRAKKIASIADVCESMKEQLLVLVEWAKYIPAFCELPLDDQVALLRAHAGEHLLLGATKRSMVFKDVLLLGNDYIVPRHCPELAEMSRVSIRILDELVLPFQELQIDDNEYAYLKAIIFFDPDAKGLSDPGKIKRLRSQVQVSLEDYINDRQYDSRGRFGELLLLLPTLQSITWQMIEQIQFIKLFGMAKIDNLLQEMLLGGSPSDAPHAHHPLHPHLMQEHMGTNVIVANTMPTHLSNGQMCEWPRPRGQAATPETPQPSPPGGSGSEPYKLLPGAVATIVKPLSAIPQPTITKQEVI
Assay: protein-binding microarray
Settings: COS-7 nuclear extract on double-stranded Agilent 4x180k PBM; binding buffer, salt, pH and temperature not given; high values mean tight binding; double strand, one strand shown; sequences stand for … in …GCCTAGGGAGATTAGAGTATCGGTCGA

| Sequence | binding signal (log2 normalized intensity) |
| --- | --- |
| TTTCTCAGCCCCATCCCCCAATACACACAC | 5.03 |
| CTTAAATGAGATAAGATGAAGCTCTCAGAA | -1.2 |
| AACATGGATTTTGGAGCCAAACAGGTGTGG | -0.156 |
| AGAACTGTTAACTTTGTACTCAATTTGGAT | 1.76 |
| AAGGACAAAGGTCAACAAACGCCCCTTGGA | 5.61 |
| GTAGGCGTATGCTGTACAGATCTCTACGAC | -1.36 |
| AATCTCTCAAGTTGCCCGCTTGGCCCTCTT | 1.65 |
| TAAACCCGATCCTTACTATTAGGTCTTTGA | 1.45 |
| AACTGTCACAAGAAAGGCAGAAAACTCAGA | -1.07 |
| CAGTATTAATGTCAAACTGATCAGAAGTGG | 1.37 |
| AGCACATCACACAGGCATATTTGGTTAGCT | -1.31 |
| GTTGGGCAAGACTCGTGAAAAGAGTGATCT | 0.26 |
| CCTTAAGAGCAGTCTGCTCAAGTCTTTTAG | -1.36 |
| GATAAGAACTGCAAGGCTAGAGATTCTCCC | -1.22 |
| AAGGGAACCCTAATCCACATGCTATTATTT | -1.27 |
| TTGCTTATAGCTCAAAGTCCACCAACTCTG | 4.87 |
| CAGAGACCTTTGCTCACGTTTTCCTGCTGA | 1.71 |
| GTAATTAATCTGATCGCCCTCCCCCAGAGA | 5.03 |
| TGATTAGAACATTAAGTCCAAATGCTGGTT | 1.39 |
| TTAGACAGTGCTTCCAAAGGACAGGGTTTC | 0.273 |
| CCTTTGCCCTCCAAACTGAGAGATTTTTTC | 1.05 |
| TTTCTGGGATTTGTACAAGTGATTGGATCT | 1.7 |
| GAGCTTTTACCTCAAATAAAGGTCAGAGTC | 2.66 |
| ATCTATTATTAGGTACAAACATACTTAGGA | 0.835 |
| TCCTGTAGAATGACCCCCTGGGCTCCAATC | 3.77 |

| Sequence | binding signal (log2 normalized intensity) |
| --- | --- |
| TCTCTCTCTCTCGTTTTTTTTTTCCCTGAG | 1.65 |
| ATGATGGCCAGGGAGTACACCCCTCACTCC | 0.221 |
| GGCATTATTAGCCACAACTGAGTATTTAGC | -1.37 |
| CAAATACCATCCCCAGAGCCGGAGCACCAC | 1.5 |
| GATAAGAGGCAGTCCTGGCTTGGCCACCTA | -1.35 |
| TTCCTGCACCCGGGCAGCCTGTGGCCAGGC | -1.36 |
| CTTTTTGATCTTGTCACATTTCAAAAGCTG | -1.34 |
| TGCCTGGAGAGCTAGTAAGGAGCTGAGTCA | -1.4 |
| TCCTTGGCTCTCCCCACTTACTTCCTGATA | 0.269 |
| GATTACTTGGCACTTAGCACAAGTGACTAT | -1.29 |
| ATCTGCAGGGCAGCAGACTCAGAAAAATAT | -1.33 |
| CCACTCTTTTTTAGACTTTGACCTCCATAT | 8.93 |
| TGAATTTAACCTTTGCTCTCTGAAATGAAG | 5.77 |
| CTGCTTTGGTTAATCATTAGAGATGTTCAA | 0.234 |
| AAGAACAGCTTTGGTATTACATTACAACCA | -1.32 |
| AATTTGTCTTTTCTCCCCCGATAAGGCTGC | 4.01 |
| ACTTTAACCTTTAGATTACTAGGAATTGAT | 1.53 |
| CCACCCTCACAGCTCAATCCAACAAATAGA | -1.39 |
| GAAATATGTAGGTTTGGGGAACTTTGCACT | 4.4 |
| CTTTGGCCAAGGGCAGTGTTTGCCCAGCTT | 0.731 |
| GAGAGCAAACTTCAAAGAAGCTGTTGGAAA | -1.37 |
| TGGTCCTTCAAGTGTGACCCTGAACCTACA | 3.06 |
| GAGTGTGACTGTGGTACTCCAAAGGTCAGT | 5.29 |
| CTTAGCAAATATTTACTGAATGAATGTCCA | 1.2 |
| TGTGTTCCACAGTCAAGGCCAAAGGTTAAA | 5.96 |

| Sequence | binding signal (log2 normalized intensity) |
| --- | --- |
| GCCCTCCCCCAGAGAGAACAGTCCTACAAA | 2.92 |
| CTGCCCAGACACACAATATTATGTTTTGTT | 0.868 |
| TGATTATTTGTGAAGGCATTATTGGTGAAA | 0.974 |
| AAGCAGAAGGAGGAGGAGGTTCCTGGAACT | -1.21 |
| GCACAGAAGGAGAGAGAGGGAGAGTGGCCT | -1.21 |
| CCCTTATCTTCTGGCCACCTCTTCCAGAGT | 0.238 |
| GACAAAGAGCAAGTGACCCTCAGACACACA | 1.26 |
| CAGACACGCTTGACTGGCTCCACCACTTTG | -1.4 |
| GGTGATGTGAACCTCGATCCCTGGCTAAGG | 2.38 |
| AAGTGCTTGTTCCCTCCATCCAAGGCCCGC | -1.21 |
| AAGTGGTTGTAGCAGTTCACACTCCCACCA | -0.867 |
| TGGGCACTGTCCTAGGTGCTGAAGATGCAA | -0.883 |
| ACTTGTTTTTTCAGGTGTTGCTCTCTTGCC | 1.63 |
| GAAAGGGCCTCTCAGGTCAGGGAAGACTGA | -1.11 |
| ATATGAAGCATTGCTTGAGTCACTTGGTTT | 1.42 |
| TAGATAAGAGCTGAGGAAGTGCTGACCTTT | 6.57 |
| GCCCTCTCCATGCAGACAGTCCCTCCTCCA | 1.31 |
| AGCAAGGTCAAAGTGCGTCCTGTGGCAAAG | 4.55 |
| AGGTGCCTGGGATCGAAAGGACATTGTCCA | 2.53 |
| TTATACAGCCTTGGAAGACACAGATGGTGT | 1.19 |
| TAACAATTCTTTCTGATAAGAGCATTTTTG | -0.112 |
| GAGCCCAGCAAACCTATAGGACCAGGCTGT | -1.31 |
| TGGGGCTTAGATAGCAGTGTGAGTGTCAGA | 0.573 |
| CACAAGTCCTCACAATAATGAGAAACGCCT | -1.26 |
| AACAAAGAGAAAGGGTCAATGTGATCAGGT | 1.88 |

| Sequence | binding signal (log2 normalized intensity) |
| --- | --- |
| AAAGGTGATCTGCTGGAATGAAGACTCACA | -1.4 |
| ACCTTGCAGGCCAGGGAGTGCAGCTGCAGG | -1.1 |
| TCCTTCCCTCAGCAACTGCAAGGCTGACCC | 3.92 |
| GCACAGCTGATTGCTCAACCCAAAGCATGT | -1.33 |
| AAGACTCACATCTATCTCCCTACCCTCACC | 1.95 |
| CCTAAATTCAAATGGACCCAAGCGGCCATT | 1.96 |
| TGAGGGAGCAAAGGGCATGGAGGATTTAGA | 2.4 |
| AATGTCTTTTAAATACATAGCTGGGATGAG | 0.498 |
| TAGCTCCAGTTGGTTGCTAAGAGACAGCTC | -1.47 |
| CACACACCCCTCCACTGGACAGCAGCTACA | 1.66 |
| CTGGCAGAGGGGATCAAGTGGCAATAAACT | -1.33 |
| TGCATTCCTTTGTTTATCTAACCCACATCC | 1.85 |
| CCTTTTTAATGTTTCATTAAGCAAGATATG | 1.3 |
| AATACACAATCTGAAGTCCCCTGTGCTTTG | 2.22 |
| CCACCACTGCTTCCTGCCCCCTGTGGTCAA | 4.14 |
| GTGGGAAGGGATCAGAAATTGATTTGTAAC | 0.512 |
| CAGGGTGGGGTCTCGCTGCTTCGGCCTTTG | 1.11 |
| TACAGAATTCTCATGGAGGACTTTGGCCTT | 7.81 |
| TAAATCCCTGCCAAAATATGTCAAGTAGCT | -1.39 |
| TCTCTGGGTCAAAGGTCATCGCACCGGCAG | 7.54 |
| CACAATGATAACAGCGTTTTCCCATTCATG | -1.34 |
| AGTATTTTCTGTCTAGGTGCCAGAATTGCT | -1.34 |
| GAATGACTTTGGGGAAATGACCTTTGTCCA | 9.48 |
| GGAAGAGGAAGCATCCTATAGGCCTATAAT | -1.26 |
| TTGTGGCAGTGAGAACAGGTTCATTCTTTA | 0.687 |

| Sequence | binding signal (log2 normalized intensity) |
| --- | --- |
| CAGAAGACTACAAATTCCTCAATCCAGTCA | -1.23 |
| TGCAAGAGAGCAAACTTCAAAGAAGCTGTT | -1.17 |
| TGGGTTCAAAGAGCACATTCCTGCACCATA | 3.22 |
| AGGCATACCTTTCTTATCATAAGTAAAAAG | -0.0422 |
| CCTTATCTGAATTCCAGCATCACTAATGTC | 0.361 |
| CTTCCAAGTCTCAGCACCTGTGCTTCACTC | -1.1 |
| GCCTCATTTCACCTTTGGTCTTTGGTGAAA | 4.52 |
| TGTGACAAGAAAGACCCAAGGCGTATGAAG | -1.31 |
| GCGTCATCAGTCCAGGAGGGTCACAAGTCC | 3.15 |
| GGACAGACACACCCTTCAGAGCTTGAAAAG | -1.26 |
| GTCCCCCGACCCGCCCGACTACAACAGCCT | 4.95 |
| CCACCTAGGCCGGTCAAGTCAGAGGCCCAG | -1.12 |
| GTGTTCTGCTGCCATTGGATGGAATGTTCT | 1.63 |
| GTACAGCCTTTGATCTACAGTCAGAGGCCT | -1.04 |
| GCTTATCTCACTCCAAAGGCTGTTTGCACC | 1.79 |
| GCAAAGGTTTCCTAAACAGTTACCGAGAGG | -1.25 |
| CTGCACAGGACTGCTCTCTACTCAGGGGGT | -1.1 |
| AGTAAAAGGTAGATACTATAATTAGAATCT | -1.23 |
| TTACCGGTGTGACTTTGGTTGGATTTCTTG | 1.56 |
| GAATAGAAAGAGGTCAATGTACTTACAGCT | 1.18 |
| AGGGTTAAATCTCGGTATAATTCCTAAATA | -1.28 |
| TCTATCCAGATGATCTTTACCCTGGAATGC | 3.32 |
| TTACACCTGGGTGCTCCCTCCCCCTGCATG | 4.37 |
| GCCTGCACACGGTGTCCAGATTCCAGCCTC | -1.25 |
| CTATCATTATCTCTCACTGCAGAAACTCTG | 0.349 |

| Sequence | binding signal (log2 normalized intensity) |
| --- | --- |
| ATAGGGTCAGTCTTTGTTCTAGTAAGGCCT | 1.68 |
| GTGGACTTTGTCCTGTGGGCTGTAAAAATC | 5.73 |
| ATAGGAACATGAACTGAGCAGGCCTGGGCT | -1.42 |
| GGGCCCCATCATGTGTACAGAGCTGAAGTT | 0.95 |
| TCGAGGACAGGATGGGGGTGGGAGGCTGGG | -1.35 |
| TACAAACACCAACCTGTTCCAAAGTCCACC | 6.55 |
| CGGATGACTCTTGGGCAGTCTAAAGTCTGA | 2.44 |
| CCTCCTGCCTTTCCCTTATCAGGACTTTGT | 4.3 |
| CAATTTTCAGGGTTAAAAGTTCTGCTGAGT | 0.935 |
| GCCTGCCCCTCTGACCTCTCCTCCTACCTT | 3.39 |
| CCCCCCACCCCAGAAGTATGGGAAGCTGAG | 3.85 |
| AGCAGTCTGAGTAGGAAAGACTTGCTCATT | -1.07 |
| TCATTTTACAGATAAGGAAACCAAGGTCCA | 1.85 |
| AACACTTGTGTCAACCGTGTCAACATTGCG | -1.2 |
| AGACCTTTGACATCACCTAACTTGTGGCTG | 1.49 |
| TCGTCCCACAATGCATTCCATATGGATTAA | 0.33 |
| TTTGATAATTACAGAGCAAGTAGAGCTGCT | -1.26 |
| GCCTCCAAAGTCCGCTTGCCTGAGGGTCAT | 2.99 |
| TAGGTACTATTATTAGAGTCCCTTTTTTAG | 0.509 |
| AAAGTTTATGTGTGAGCCTATAATTGATGT | 1.26 |
